PubChem BioAssay AID1671194 (National Center for Advancing Translational Sciences (NCATS), 2021)
Out of some 140,000 compounds screened, about 240 (0.17%) were called active. The inconclusive results got no clear call from the source; some entries with a clear call stand among them for comparison. Calls follow the shape of the dose curve; as a rule, active = well fitted inhibition curve with a large enough effect; inconclusive = small, poorly fitted or top-dose-only effect; inactive = no such curve, though single readings can be large or run the other way. Potencies beside an inconclusive call are fits to weak or partial responses and may not hold up.
Potency is read from the fitted curve at half-maximal effect; tags tell the direction and shape of the fitted curve.

Test: Primary qHTS assay for inhibitors of alpha-synuclein gene (SNCA) expression; also: nearly all actives have a fitted effect of over 45% in size;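 as to activity change, negative = inhibition: plate controls were DMSO cells for no effect and cell-free wells for full effect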
Conditions: HEK-293 SNCA-luciferase knock-in, luminescence, 24 h; activity change, negative = inhibition: at 57.2 µM (top of the series) unless noted
With CCOC(=O)c1cccc(NS(=O)(=O)c2cc(Br)cc3c2N(C(=O)C2CC2)CC3)c1 the Potency was inconclusive: 20 µM [inhibitor, partial curve, poor fit].
In the case of Cc1oc(C(O)c2ccccc2)nc1C(=O)Nc1ccc(C(=O)Nc2ccccc2)cc1 (stereo not given), the Potency is reported as inconclusive: 28.2 µM [inhibitor, partial curve].
For O=C1NCCCCCN(C(=O)Cc2cccnc2)[C@H]2CCC[C@@H]12, the Potency was inconclusive: 39.8 µM [inhibitor, single point].
With CCOC(=O)CCNC(=O)c1ccc2c(c1)N(CC)C1CCCCCN1C2=O (stereo not given) the Potency was inconclusive: 39.8 µM [inhibitor, single point].
With Cc1nc2ccc(C(=O)N3CC(=O)N(c4ccc(Cl)cc4)CC3C)cc2[nH]1 (stereo not given) the Potency was inconclusive: 12.6 µM [inhibitor, partial curve, poor fit].
For COC(=O)c1cc2n(n1)CCCN(C(=O)c1cc(-c3ccccc3O)n[nH]1)C2, the Potency was inconclusive: 3.16 µM [inhibitor, partial curve, poor fit].
For CNc1cc(C)nc(N2C[C@H](NC(=O)C3CCOCC3)[C@@H](C3CC3)C2)n1, the Potency was inconclusive: 39.8 µM [inhibitor, single point].
In the case of COC(=O)c1ccc(OCC2c3cc(OC)c(OC)cc3CCN2C(=O)c2cccc(C)c2)cc1 (stereo not given), the Potency is reported as inconclusive: 39.8 µM [inhibitor, single point].
For Cc1ccc(CC(=O)N2C[C@@H](COc3ccccc3)[C@H](C(N)=O)C2)cc1, the “activity change, negative = inhibition” value was inactive: -0.807%.
For CCN(CC)C(=O)c1cccc2c1CCN2C(=O)Nc1cccc(C)c1, the “activity change, negative = inhibition” value was inactive: 42.9%.
For COCCC(=O)N1CCC(N2C(=O)C(OC)C23CCOCC3)CC1 (stereo not given), the “activity change, negative = inhibition” value was inactive: 7.44%.
In the case of CCOc1ccc(-c2ccnc(-c3ncccn3)n2)cc1C(=O)O, the “activity change, negative = inhibition” value is reported as inactive: -5.81%.
In the case of COCc1nc(C2CCCN(C(=O)Cc3ccc(OC)cc3)C2)no1 (stereo not given), the “activity change, negative = inhibition” value is reported as inactive: 51.7%.
For C[C@@]1(O)CCN(Cc2ccc3c4c(cccc24)C(=O)OC3)C[C@@H]1O, the “activity change, negative = inhibition” value was inactive: 1.32%.
With CCn1ccc(C(=O)Nc2ccc3ncnc(N4CCCC4)c3c2)n1 the Potency was inconclusive: 6.31 µM [inhibitor, single point].
For CCC(=O)Nc1ccc(S(=O)(=O)NCc2cccn2Cc2cccc(C)c2)cc1, the Potency was inconclusive: 39.8 µM [inhibitor, single point].
With O=C(C#Cc1ccccc1)NC1CCCc2c1cnn2-c1ccc(F)cc1F (stereo not given) the Potency was inconclusive: 3.98 µM [inhibitor, full curve].
With CCOC(=O)N1CCC(NC(=O)c2cnn(-c3ccccc3)c2C2CCN(C(=O)OC(C)(C)C)CC2)CC1 the Potency was inconclusive: 2.51 µM [inhibitor, single point].
In the case of O=C(Cn1ccn2nc(-c3ccccc3)c(CO)c2c1=O)Nc1cccc(Br)c1, the “activity change, negative = inhibition” value is reported as inactive: -15.5%.
For COc1ccc(-c2nc3cc(NC(=O)COc4ccc(F)cc4)ccc3o2)cc1, the Potency was inconclusive: 11.2 µM [inhibitor, single point].
In the case of O=[S+]([O-])(NC1CCN(Cc2cccc(-c3cccs3)c2)CC1)c1ccccc1, the Potency is reported as “inactive”.
In the case of O=Cc1ccccc1-c1ccc(O)cc1, the Potency is reported as inconclusive: 70.8 µM [inhibitor, single point].
In the case of Cc1[nH]c(C=C2C(=O)Nc3ccccc32)c(C)c1CCC(=O)O, the Potency is reported as inconclusive: 24.1 µM [inhibitor, single point].
In the case of COc1ccc(Nc2ccnc(N3CCCC(C(=O)N4CCC(Cc5ccccc5)CC4)C3)n2)cc1 (stereo not given), the Potency is reported as inconclusive: 22.4 µM [inhibitor, single point].
For CCOC(=O)c1ccc(NC(=O)CC2Nc3cc(C)c(C)cc3NC2=O)cc1 (stereo not given), the Potency was inconclusive: 39.8 µM [inhibitor, single point].
In the case of Cc1nc(CN2Cc3nc(-c4cnn(Cc5ccccc5)c4)ccc3OCC2=O)cs1, the Potency is reported as inconclusive: 1 µM [inhibitor, full curve].
For Cc1cccc2c(C3CCN(C(=O)c4c(Cl)cc(Cl)cc4Cl)CC3)c[nH]c12, the Potency was inconclusive: 8.91 µM [inhibitor, full curve].
For CC(=O)Nc1ccc(CN2C[C@@H](F)[C@@H](OCc3nc4ccc(F)cc4[nH]3)C2)cc1, the Potency was inconclusive: 12.6 µM [inhibitor, partial curve, poor fit].
With CC(=O)OC[C@@H]1O[C@@H](n2ccc(=O)[nH]c2=O)[C@H](OC(C)=O)[C@H]1OC(C)=O the Potency was inconclusive: 42.9 µM [inhibitor, single point].
With CS(=O)(=O)N1CCC2(CC1)CC(CC(=O)N1CCN(c3ccccc3F)CC1)CCO2 (stereo not given) the “activity change, negative = inhibition” value was inactive: 33.7%.
For CCc1cccc(C)c1NS(=O)(=O)c1ccc2c(c1)NC(=O)C(C)C(=O)N2 (stereo not given), the Potency was inconclusive: 7.08 µM [inhibitor, single point].
For COc1ccc(C(NC(=O)Cn2cccnc2=O)C2CC(O)C2)cn1 (stereo not given), the Potency was inconclusive: 12.6 µM [inhibitor, single point].
With CC(C)(C)c1ccc(-c2cc(C[C@H]3CNCC[C@H]3CC(=O)N3CCN(c4ccccn4)CC3)no2)cc1 the “activity change, negative = inhibition” value was inactive: -3.75%.
For CCOc1cc(C(=O)NC2CCN(c3cc(-c4ccccc4)[nH]n3)CC2)cc(OCC)c1OCC, the “activity change, negative = inhibition” value was inactive: -19.8%.
With Cn1cccc1CN1CCC2(C1)C(=NC1CCCC1)NC(=O)N2c1cc(F)cc(F)c1 (stereo not given) the Potency was inconclusive: 8.91 µM [inhibitor, single point].
In the case of CC(C)[C@@H]1CN(C(=O)c2cccc(Cn3cccn3)c2)C[C@H]1NC(=O)N(C)C, the Potency is reported as inconclusive: 10 µM [inhibitor, partial curve, poor fit].
For Cc1nc2cc(C(=O)N3CC[C@@](C)(O)[C@@H](O)C3)ccc2s1, the “activity change, negative = inhibition” value was inactive: 3.76%.
With CNC(=O)[C@H]1C[C@H](Oc2cccnc2)CN1C(=O)NCCc1ccccc1 the Potency was inconclusive: 39.8 µM [inhibitor, single point].
In the case of COc1ccc(C(=O)COC(=O)CCCC(=O)Nc2ccc(C(C)=O)cc2)cc1, the “activity change, negative = inhibition” value is reported as inactive: 180%.
For COc1ccccc1-c1cccc(C(=O)N2CCN(C(=O)c3ccc(Cl)cc3)CC2)c1, the Potency was inconclusive: 3.55 µM [inhibitor, partial curve, poor fit].
In the case of CCOc1ccc(-n2nc(CO)c(C(=O)NCC(c3ccccc3)c3ccccc3)n2)cc1, the Potency is reported as inconclusive: 39.8 µM [inhibitor, single point].
In the case of CN1C(=O)C2(CCN(C(=O)c3cn[nH]c3-n3cnnn3)CC2)c2ccccc21, the “activity change, negative = inhibition” value is reported as inactive: 16.1%.
With CC(C)COc1ccc(C(=O)Nc2scc(-c3ccc(Br)cc3)c2C(=O)OC(C)C)cc1 the Potency was inconclusive: 2.82 µM [inhibitor, single point].
In the case of CCc1cccc(N2C(=O)CSC23C(=O)N(Cc2ccccc2F)c2ccccc23)c1 (stereo not given), the Potency is reported as inconclusive: 35.5 µM [inhibitor, partial curve, poor fit].
With COc1ccc(-n2ncc(C(=O)NCc3ccc4c(c3)OCO4)c2C2CCN(C(=O)OC(C)(C)C)CC2)cc1 the Potency was inconclusive: 39.8 µM [inhibitor, single point].
In the case of COc1ccc(Cn2c(C3CCN(C(=O)c4ccc(F)c(Cl)c4)CC3)n[nH]c2=O)cc1, the Potency is reported as inconclusive: 39.8 µM [inhibitor, single point].
In the case of CN(Cc1ccc(F)cc1)c1ccc2ncc(Nc3cccc(O)c3)n2n1, the Potency is reported as inconclusive: 7.08 µM [inhibitor, partial curve, poor fit].
For COc1ccc(NC(=O)c2ccc3c(c2)C2(CCCN(C)C2)CN3C)cc1 (stereo not given), the “activity change, negative = inhibition” value was inactive: 30.5% [at 87.6 µM].
For CC1CCN(CC2CCCCCN2C(=O)NCc2ccc(F)cc2)CC1 (stereo not given), the “activity change, negative = inhibition” value was inactive: -5.95%.
With c1ccc(CN2Cc3[nH]cnc3C[C@H]2c2nc(-c3ccccn3)no2)cc1 the “activity change, negative = inhibition” value was inactive: 59.7% [at 87.6 µM].
For CCN(CC)C(=O)c1sc2c(c1C)c(=O)n(Cc1ccccc1)c(=O)n2CC(=O)Nc1ccc(OC)cc1, the “activity change, negative = inhibition” value was inactive: -6.27%.
With O=C1c2c(nc(COc3ccccc3)n2Cc2ccccc2)NCCN1CC1CC1 the Potency was inconclusive: 50.1 µM [inhibitor, single point].
With CCCc1noc(-c2ccn3c(CNC(=O)c4ccc(C)cc4C)nnc3c2)n1 the Potency was inconclusive: 22.4 µM [inhibitor, single point].
For CNC(=O)CCn1ncc2cc(OCc3ccccc3-c3cc(F)ccc3OC(C)C)ccc21, the Potency was inconclusive: 39.8 µM [inhibitor, single point].
For O=C(c1cccc(O)c1)N1CC(CNc2ccccc2)C2(C1)CN(c1ccccc1)C2 (stereo not given), the Potency was inconclusive: 50.1 µM [inhibitor, single point].
In the case of COCC(=O)NC[C@H]1CCN(Cc2ccc3c(c2)CCO3)C[C@H]1N(C)C, the Potency is reported as inconclusive: 39.8 µM [inhibitor, single point].
In the case of Cc1cccc(NC(=O)Cn2ccn3nc(-c4ccc(F)cc4)c(CO)c3c2=O)c1C, the “activity change, negative = inhibition” value is reported as inactive: 28.3%.
For COc1ccc(Cl)cc1S(=O)(=O)N1CCC(c2ccncc2)CC1, the Potency was inconclusive: 10 µM [inhibitor, partial curve, poor fit].
For Cc1cccc(OCC(=O)NCc2ccc3c(c2)CCN3C(=O)c2ccc(Cl)cc2)c1, the Potency was inconclusive: 2.24 µM [inhibitor, partial curve, poor fit].
In the case of COc1cccc(CNC(=O)CSc2nnc(C)c3c(C)n(-c4ccccc4)nc23)c1, the Potency is reported as inconclusive: 0.891 µM [inhibitor, full curve].
For NC(=O)c1cn(Cc2c(F)cccc2F)nn1, the Potency was inconclusive: 3.16 µM [inhibitor, full curve].
With Cc1cc(O)c2c(c1)C(=O)c1cccc(O)c1C2=O the Potency was inconclusive: 34.1 µM [inhibitor, single point].
For CC(NC(=O)c1ccc2nccn2c1)c1ccccc1-n1cccn1 (stereo not given), the “activity change, negative = inhibition” value was inactive: -5.43%.
In the case of CSc1nccc(N2CCC3(CC2)CC(=O)N(CC(C)C)C3)n1, the “activity change, negative = inhibition” value is reported as inactive: 3.17%.
In the case of Cc1noc(-c2cccs2)c1C(=O)NC(C)CCc1ccccc1 (stereo not given), the “activity change, negative = inhibition” value is reported as inactive: -15.2%.
